# Results from the supplement of paper PMC11417369.
# This is one part of the list.
# System: PfAP2-HC AP2 domain (GST-tagged)
# Assay: gcPBM binding intensity (ln(normalized median fluorescence intensity)); higher = stronger DNA binding
# How it was run: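 After 1 h on an Agilent 4 × 180k array of primer-extended double-stranded 36-bp intergenic genomic probes and negative controls, bound GST-tagged P. falciparum DNA-binding domains were detected with Alexa488 anti-GST antibody and scanned at 488 nm. The domains had been expressed in E. coli, and binding took place in 1× PBS with 1% milk, 0.2 mg/ml BSA, 0.5% salmon testes DNA and 0.03% Triton X-100. Binding intensity is the highest Masliner-normalised natural-log median intensity across replicate spots of either probe orientation.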
row,Sequence,gcPBM binding intensity (ln)
1,AAAATTAATAAATAAACACACATATTTATATTTATA [CACACA_site7266],9.69
2,TATAAATATAGACACACACACACACCGAAGCGTAGC [CACACA_site6180],10.6
3,TCGTCACTTTAATATTGTACATATATATATATATAT [XGTACX_site8046],9.93
4,TATATCTACTTAAAAAGTACGTAAATTATAAGCTAT [XGTACX_site6420],9.32
5,TGTGTAAATATGTATACACACATATCTGATCAATAT [CACACA_site7507],9.92
6,TATATGTATTTATATACACACATATTCTTTTTACAC [CACACA_site8320],9.93
7,TCCTTTTCATCTTGTAGTACGGAAATGTAGCTCCAA [XGTACX_site8563],9.45
8,AATATTTTGAACAACAGTACTCTTTCTTTCTTTCTT [XGTACX_site7212],9.51
9,ACCTCACAAATGAATACACACAAACATATAGATTTA [CACACA_site6862],10.1
10,ATATATAAAATTATATGTACATATATCTATTTATAA [XGTACX_site3713],9.63
11,GATTAAAACTTTAACTGTACATAATAATTATCAATC [XGTACX_site5938],9.51
12,TTTAAAATTTCTTAATGTACGTAATAAAAAAAAAAA [XGTACX_site4037],9.36
13,TATGTATAACTCAATGCATGCGAAGGACTATTATTT [TGCATGCA_site222],9.59
14,AATATTGTTCACAAGGTGCTTTTTATTCATACTAAT,9.8
15,GTAATTTTTTTCTATACACACATATCTATAATATAT [CACACA_site7284],9.98
16,TACTTATAATTTCAATGTACATATATATAATATCAT [XGTACX_site2424],9.65
17,AATTAAATATTATAAACACACATATAGATTATTTTT [CACACA_site6538],9.73
18,ATTTTAAATATGGAATGTACTTAAAAAAAATTTCAT [XGTACX_site5058],9.41
19,ATTTCTTATTAAATTACACACAAAGTAAATAAATCT [CACACA_site3924],9.54
20,TTTTCCTTTTTTTTTACATGCAGATATAGAAAGGTA [TGCATGCA_site106],9.3
21,TTGTTTTGGATTATCACACATATAATATATACTCAT [CACACA_site4780],9.91
22,AAATACATAACTTAAAATTTGTTCATATCTATACAT [TGCATGCA_negctrl_site249],9.65
23,TATAATAATATGGATTGTACATATATATTTAATTAA [XGTACX_site4327],9.56

row,Sequence,gcPBM binding intensity (ln)
1,TCTTTTTTGAACTAGCGTACATGAAAATATTTATAG [XGTACX_site7359],9.47
2,TTATTACATATAAAGGAAAATAGCATCTAGATTAAA [XGTACX_negctrl_site435],9.44
3,TTTTTATTTATATATAAGGAAAATGCGGTATATATT [CACACA_negctrl_site1770],9.44
4,AAAAAAAAAAAAAAAAAATACATATACATTTGTGCA [CACACA_negctrl_site1431],9.43
5,AACACCCATGGACACACACACATATATATATATATA [CACACA_site5809],10.4
6,TTTTTATAAGCATAAAGTACAAATATTTTTTAGTTG [XGTACX_site4140],9.33
7,TAAATCCGTTTGATGGGTACATACATACATACATAT [XGTACX_site8889],9.73
8,ACAATAAAATATGGCACACATATATATATATATTTA [CACACA_site3],9.78
9,ATTTATTTTAGTAAAGCACACGTGTAAAATATATCT [CACACA_site4820],9.8
10,ACACAAAACAAAAAGGTGCTGTATAAATGGGTGTAT [GTGCAC_site9905],10.5
11,CATATATAAAAAAACACACACATATTTATATTTATA [CACACA_site6682],10.3
12,CATATTTCTTACATTTGTACTTAATAAAATTAATCA [XGTACX_site7224],9.72
13,AAAAAAATTTATAAATATTTTATTAATATATTTACC [GTGCAC_negctrl_site690],9.35
14,ACAAAATAAATATGAACACACACATTTATGCCTTTA [CACACA_site8346],10.2
15,ATAATTATACATATTACACACTCTCTTGATCTTTTT [CACACA_site3853],9.87
16,TTTTTATACAACTTATAATACATCTGAAAATATAAA [XGTACX_negctrl_site36],9.32
17,TTGTCTGACTAATTTTTTTCTGTTTGTACGTTCTTA [GTGCAC_negctrl_site602],9.76
18,TATCACATATTATGATGTACAAGGTTTCTGACTAAT [XGTACX_site2763],9.47
19,CAACATTCGTATATCACACATTTGCATGTTGTCAAT [CACACA_site4470],9.78
20,GATTTAGTTATTTAAACATGCAATTTATATAGAATT [TGCATGCA_site47],9.45
21,TATTTATACATACATACACACATATAGATTTATATT [CACACA_site7851],9.91
22,TTATTTTTTATTATGTGTACATAACATCGCGATACA [XGTACX_site4359],9.67
23,AAAACTTGTCAGAATGGACACACGAATTAAAGGCCT [CACACA_site1215],9.7

row,Sequence,gcPBM binding intensity (ln)
1,TTTTTAATTTATTGTGTGCACACAACTATGAGTTTT,10.4
2,ATATGATATATATTCGGTACACATATATATAAAGAG [XGTACX_site430],9.89
3,ATTTAAATAATATTCACACACAAAATTATATTTTAA [CACACA_site219],9.94
4,AAGTTTTCTTAAAATTGTACTTTTCAAAAATAATCT [XGTACX_site277],9.34
5,TATGTCAAATATATATGTACACAAATATACTATTAA [XGTACX_site2643],9.54
6,AATATATATATTAGAGTGCACATAATTATTTGCTAA,9.71
7,ATAAAATATATATTAGTGCACTAAAGGAAAAAAAAT,9.99
8,ATAATCACAAATAATTGTACATTTTGTTATATATAT [XGTACX_site7704],9.63
9,TGATATATATATATATATATAACACACGCAAAAAAA [TGCATGCA_negctrl_site240],9.98
10,AAAAATTTCATATTCACACACAAAAAAAAAAAATAT [CACACA_site1592],9.96
11,TATAAAAGGTAAGAGTGTACAAGTAAAAAATTTTTA [XGTACX_site771],9.77
12,AATAAAAATTGGTAGGCACACATGGAACTATTAAAA [CACACA_site1257],10.1
13,ATGAACTATATTAAATCACACATTATCATTTTATAT [CACACA_site4989],9.81
14,TATTTTTTTTTTTAATGTACAAACAAATTATGTTGG [XGTACX_site2873],9.31
15,ATTTTTTTTATGAGGTGTACTCATATAATAACTACA [XGTACX_site5074],9.6
16,TTTTCTAAAGTAAGTTAAGATATGCAAAAAAAAGAA [GTGCAC_negctrl_site242],9.62
17,ATATATATATATATATGTACACATTAATGTTTTTTT [XGTACX_site167],9.78
18,TATCCCTTAGAATACACACCCATATGAGCGTGAACT [CACACA_site2951],9.55
19,TCGTATATGGATTTTGCACACAATTATAATTTAAAT [CACACA_site868],9.95
20,TATATATTTTAAAATAGTACATATTATATAACCCAT [XGTACX_site2194],9.71
21,TAAAAAATAAAAAAAGCACACACATATATATATATA [CACACA_site8567],9.97
22,AAAATAAGAAATTGAAAAATTGAAAACAAAATTAAA [CACACA_negctrl_site1285],9.62
23,TATAAATAAAAACACACACACATATATATATATATA [CACACA_site2319],10.4

row,Sequence,gcPBM binding intensity (ln)
1,CCATTTTAAATATGCACACAGATGCACTAACCCATT [CACACA_site1883],9.91
2,ACTACTCCATTAAGTAGTACACAAAAAAAAAAAATA [XGTACX_site7031],9.36
3,TTACAAATGTTTTACACACACATAATTGTATCAATT [CACACA_site6147],9.99
4,TAATAAAACATATATACACACATTATAAATACATAT [CACACA_site5014],10
5,ATTATAGACACGCGCACACACAACAAAAAAAAAAAA [CACACA_site9180],11.3
6,TTGGGGTATCTTCCTATGCACACTTGTTATGTACTA [CACACA_site831],9.85
7,TTGATTACTAGAAATGCACACACTGATAAAATAAGG [CACACA_site4134],9.92
8,ATACTTTTAAATTGATGTACTTTATTTATAAGGTGA [XGTACX_site6746],9.4
9,TTGCTCACAAGAAGCACACAAAAAAAGAAAAAAAAA [CACACA_site4047],9.58
10,ATATCCTTAAAAGATACACACATATGAATATTTTGT [CACACA_site3847],9.83
11,TTTATACTTGTAAATGCACACATAAGATGCGACTAA [CACACA_site8662],9.64
12,GTTTGTAAATATTTTACACACATATATATATATATA [CACACA_site1075],9.79
13,GTTTTTTTATTTCATCGTACAAAAAAGAAGGCTTTA [XGTACX_site5291],9.35
14,TTATATATTTATTTATGTACATATTTTTTTATTATA [XGTACX_site6115],9.99
15,TAAATATGTATTCATACATGCACATATATATATATA [TGCATGCA_site584],9.59
16,TATAAAACGGATGAACAACAAATCATATGGCACAAA [TGCATGCA_negctrl_site608],9.86
17,TTCACAAAATATTATTGTACATTAAAATATTTATAT [XGTACX_site2535],9.57
18,TACATGATATATCACACACACATATAAATATATATA [CACACA_site2831],10.2
19,GAAAATTTCTTATTTTGTACACACAATAAATATTCA [XGTACX_site3267],9.75
20,TTTTTTTAATTTGGTTGTACTTAAAAAAAAAACAGA [XGTACX_site5788],9.22
